The campaign covered roughly 200,000 compounds. About 4,500 (2.2%) were called active. Inconclusive results, whose numbers are uncertain, are shown with a selection of clear calls. The call rests on the fitted dose curve; in most records, active means well fitted inhibition curve with a large enough effect; inconclusive means small, poorly fitted or top-dose-only effect, or effect the other way; inactive means flat fitted curve, though single readings scatter. Potencies beside an inconclusive call are fits to weak or partial responses and may not hold up.
What follows are compounds tested against Cruzipain (Trypanosoma cruzi) (UniProt P25779) (assay: qHTS Assay for Promiscuous and Specific Inhibitors of Cruzain (without detergent)). Conditions: purified cruzain, Z-FR-AMC fluorescence, no detergent.
Sequence of UniProt P25779 (P25779 whole entry, looked up): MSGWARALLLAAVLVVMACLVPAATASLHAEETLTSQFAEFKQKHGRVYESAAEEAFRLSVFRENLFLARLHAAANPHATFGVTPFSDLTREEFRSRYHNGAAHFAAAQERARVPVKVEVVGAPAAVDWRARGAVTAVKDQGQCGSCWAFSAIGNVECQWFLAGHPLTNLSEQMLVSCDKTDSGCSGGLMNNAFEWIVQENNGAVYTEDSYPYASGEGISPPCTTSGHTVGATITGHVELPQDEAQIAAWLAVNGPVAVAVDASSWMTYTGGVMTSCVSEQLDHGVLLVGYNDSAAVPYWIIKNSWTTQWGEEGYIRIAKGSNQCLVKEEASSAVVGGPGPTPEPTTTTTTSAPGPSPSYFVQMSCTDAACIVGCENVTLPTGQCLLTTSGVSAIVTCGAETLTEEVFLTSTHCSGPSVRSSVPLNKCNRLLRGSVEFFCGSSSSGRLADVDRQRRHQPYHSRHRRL
Summary of the method: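 Purified cruzain at 1.5 nM, pre-incubated 15 min with compound at room temperature in 100 mM sodium acetate pH 5.5, 5 mM DTT, 0.00005% Triton X-100. Reaction started with 2 uM Z-FR-AMC; AMC fluorescence increase over 60 s gives rate.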
For `O=C1OCCN1C(=O)[C@H]1[C@H](c2ccccc2)C(c2ccc(F)cc2)=NN1c1ccccc1`, the Potency was inconclusive: 31.6 µM [inhibitor, single point]. In the case of `COc1ccccc1NS(=O)(=O)c1cc(NC(=O)c2cccs2)ccc1N1CCCC1`, the Potency was inconclusive: 31.6 µM [inhibitor, single point]. With `CCCCn1c(SCC(=O)c2ccc(OC)cc2OC)nc2cc(S(N)(=O)=O)ccc21` the Potency was inconclusive: 31.6 µM [activator, single point]. With `Cc1cc(OC(=O)c2ccc(S(=O)(=O)N(C)C)cc2)cc(=O)o1` the Potency was inconclusive: 39.8 µM [activator, single point]. `COc1cc(OC)c(NC(=O)CS(=O)(=O)Cc2nc(-c3ccc(C)cc3)oc2C)cc1Cl` was tested, and the Potency was inconclusive: 39.8 µM [activator, single point]. `CCOC(=O)/C=C1\SCC(=O)N1CC(=O)Nc1ccc(C(C)C)cc1` was tested, and the Potency was inconclusive: 39.8 µM [activator, single point]. `CC(C)(C)c1ccc(OCC(=O)O)c(Cl)c1` was tested, and the max response, negative = inhibition was inactive: 12.2%. With `Cn1c(CCCOc2ccc(Cl)cc2Cl)nnc1SCC(=O)Nc1nccs1` the Potency was inconclusive: 31.6 µM [activator, single point]. In the case of `COCCn1c(=O)[nH]c(=O)c2c(C(F)(F)F)cc(-c3cccs3)nc21`, the Potency was inconclusive: 5.01 µM [activator, partial curve]. `Cc1ccc(C(=O)N2CC(=O)Nc3ccc(Br)cc3C2c2ccc(F)cc2)cc1C` (stereo not given) was tested, and the Potency was inconclusive: 39.8 µM [inhibitor, single point]. In the case of `O=C(c1ccncc1)c1ccc(NS(=O)(=O)c2ccc(Br)s2)cc1`, the Potency was inconclusive: 39.8 µM [inhibitor, single point]. `CC1=CC(=NOC(=O)/C=C/c2ccccc2)C=C(C)C1=O` was tested, and the Potency was active: 2.51 µM. In the case of `Cc1sc2nc(SCc3nc(-c4ccccc4)no3)n(-c3ccccc3)c(=O)c2c1C`, the Potency was active: 25.1 µM. `COc1ccc(Cl)cc1NC(=O)C(C)n1c(=O)cc(C(F)(F)F)c2c(C)nn(C)c21` (stereo not given) was tested, and the max response, negative = inhibition was inactive: -1.89%. For `CC(C)(C)OC(=O)N1CCC(c2nnc(SCc3ccccc3Cl)o2)CC1`, the Potency was inconclusive: 39.8 µM [activator, single point]. With `CCCCn1c2c(c(=O)n(C)c1=O)C(c1ccc(OC)cc1)N1CCCCCC1=N2` (stereo not given) the Potency was inconclusive: 39.8 µM [activator, single point]. `Cc1ccc(N(CC(=O)N/N=C/c2cc(C)n(-c3ccccc3)c2C)S(C)(=O)=O)c(C)c1` was tested, and the max response, negative = inhibition was inactive: -2.51%. With `Cc1cc(-n2c(SCc3ccccc3F)nc3[nH]ncc3c2=O)ccc1Cl` the Potency was inconclusive: 39.8 µM [inhibitor, single point]. In the case of `CCc1ccc2c(c1)C1(NN=C(c3ccccc3)S1)C(=O)N2` (stereo not given), the max response, negative = inhibition was inactive: -24.1%. For `CCc1c(C)sc2c1CCN(C(=O)Nc1ccccc1Cl)C2c1ccc(OC)cc1` (stereo not given), the Potency was inconclusive: 39.8 µM [inhibitor, single point]. `O=Cc1ccc(CO)o1` was tested, and the max response, negative = inhibition was inactive: 2.46%. For `COc1ccccc1NC(=O)C1=C(C)Nc2nc(-c3ccco3)nn2C1c1cccc(C)c1` (stereo not given), the Potency was inconclusive: 39.8 µM [activator, single point]. For `Fc1ccc(CSc2ccc3nnc(-c4cccs4)n3n2)cc1`, the Potency was inconclusive: 39.8 µM [inhibitor, single point]. For `COc1cc2c(cc1NC(=O)c1cc(-c3ccncc3)nc3ccccc13)oc1ccccc12`, the Potency was inconclusive: 7.94 µM [inhibitor, full curve, poor fit]. `CCCCNC(=O)Cn1c(=O)cc(C)c2c(C)nn(-c3cccc(Cl)c3C)c21` was tested, and the max response, negative = inhibition was inactive: -16.6%. With `Cc1noc2ncnc(N3CCCC(C(=O)Nc4cc(F)ccc4F)C3)c12` (stereo not given) the max response, negative = inhibition was inactive: 4.61%. For `O=C(O)CC[C@H](NC(=O)c1ccccc1C(=O)O)C(=O)O`, the max response, negative = inhibition was inactive: 7.71%. In the case of `CCCS(=O)(=O)c1nc(S(=O)(=O)c2ccc(C)cc2)c(NCC(C)C)s1`, the max response, negative = inhibition was inactive: -8.51%. With `CC1CCN(S(=O)(=O)c2ccc3c(ccc(=O)n3CC(=O)NCc3ccccc3)c2)CC1` the max response, negative = inhibition was inactive: -2.44%. With `O=C(Nc1ccc2nc(-c3ccccc3)oc2c1)c1ccco1` the Potency was inconclusive: 39.8 µM [activator, single point]. With `COc1ccc(C2=NN(C(=O)c3cccc([N+](=O)[O-])c3)C(c3cccc([N+](=O)[O-])c3)C2)cc1` (stereo not given) the Potency was inconclusive: 39.8 µM [inhibitor, single point]. In the case of `Cc1ccc(NC(=O)OCc2cn(-c3ccc(Cl)cc3)nn2)cc1`, the Potency was inconclusive: 39.8 µM [inhibitor, single point]. With `CCCN1C/C(=C/c2cccc([N+](=O)[O-])c2)C(=O)/C(=C/c2cccc([N+](=O)[O-])c2)C1` the Potency was inconclusive: 39.8 µM [inhibitor, single point]. With `NC(=S)n1[nH]c(-c2ccc([N+](=O)[O-])cc2)c(N=Nc2ccc(O)cc2)c1=O` the Potency was active: 0.631 µM. With `COc1ccc(C2CC(c3ccccc3)=NN2c2ccc(N)cc2)cc1` (stereo not given) the Potency was active: 20 µM. `CCOc1ccc(CC(=O)NCCc2sc(-c3cccc(F)c3)nc2C)cc1` was tested, and the Potency was inconclusive: 39.8 µM [activator, single point]. With `Cc1ccccc1NC(=O)C(NS(=O)(=O)c1ccc2c(c1)c(=O)n(C)c(=O)n2C)c1ccccc1` (stereo not given) the Potency was inconclusive: 31.6 µM [inhibitor, single point]. For `COc1ccc(CNC(=O)C2CCCN(C(=O)c3cnn(-c4ccc(F)cc4)c3-n3cccc3)C2)cc1` (stereo not given), the Potency was inconclusive: 39.8 µM [activator, single point]. `CCCCn1c(C)cc2cc(O)ccc21` was tested, and the Potency was inconclusive: 39.8 µM [activator, single point]. For `C=CCn1c(Cc2cccs2)nnc1SCC(=O)NCc1ccco1`, the Potency was inconclusive: 39.8 µM [inhibitor, single point]. With `Cc1cc(/C=C2\SC(=S)N(Cc3ccco3)C2=O)c(C)n1-c1ccccc1` the Potency was active: 10 µM. For `O=C(Nc1cc(-c2nn(CC(=O)N3CCCCC3)c(=O)c3ccccc23)ccc1N1CCOCC1)c1ccc(Cl)cc1`, the Potency was inconclusive: 31.6 µM [activator, single point]. In the case of `CS(=O)(=O)Nc1ccc(Cc2ccc(NS(C)(=O)=O)cc2)cc1`, the Potency was inconclusive: 39.8 µM [activator, single point]. For `CCOC(=O)N1CCC(NC(=O)c2ccc3c(c2)N(Cc2ccc(F)cc2)C(=O)c2ccccc2S3=O)CC1` (stereo not given), the Potency was inconclusive: 39.8 µM [activator, single point]. With `COc1ccc(CCNC(=O)c2nc(SCc3ccc(F)cc3)ncc2Cl)cc1OC` the Potency was inconclusive: 39.8 µM [activator, single point]. With `O=c1[nH]c(/C(Cl)=C/c2cccc(C(F)(F)F)c2)nc2cc(Cl)ccc12` the Potency was active: 3.16 µM. `Clc1ccccc1-c1nccc(NCc2ccccc2)n1` was tested, and the max response, negative = inhibition was inactive: 20.4%. With `CCN1CCN(Cc2nc3cc(NC(=O)c4cccc([N+](=O)[O-])c4)ccc3n2CC)CC1` the max response, negative = inhibition was inactive: -1.04%. For `C=C1C(=O)OC2C[C@@]3(C)CCCC(C)C3=CC12` (stereo not given in full), the max response, negative = inhibition was inactive: -6.03%. `O=C(CSc1nc(-c2ccco2)nc2cc(=O)[nH]n12)Nc1ccc(F)cc1` was tested, and the Potency was inconclusive: 39.8 µM [inhibitor, single point]. `COc1ccccc1NC(=O)C1=C(C)Nc2nnnn2C1c1cc(Br)ccc1OC` (stereo not given) was tested, and the Potency was inconclusive: 31.6 µM [activator, single point]. For `CCC1=C2CC[C@H]3C(=O)N(c4ccccc4)C(=O)[C@H]3[C@H]2[C@@]2(Cc3ccccc3)C(=NCCOC)OC(=O)N2C1=O`, the Potency was inconclusive: 39.8 µM [activator, single point]. In the case of `Cc1ccc(OCc2nnc(NC(=O)c3ccco3)s2)c(C)c1`, the Potency was inconclusive: 6.31 µM [inhibitor, single point]. For `COC(=O)c1cc(-c2ccccc2)sc1NC(=O)CN1C(=O)c2ccccc2C1=O`, the Potency was active: 25.1 µM. `COC(=O)c1c(C)oc2ccc(N(C(=O)Oc3ccccc3)S(=O)(=O)c3ccc(Cl)c([N+](=O)[O-])c3)cc12` was tested, and the Potency was active: 7.94 µM. With `CCCCOCCCNc1ncnc2c1[nH]c1ccccc12` the max response, negative = inhibition was inactive: -29.1%. `CCCn1nc(C(=O)Oc2ccc3c(C)cc(=O)oc3c2)c2ccccc2c1=O` was tested, and the Potency was inconclusive: 25.1 µM [activator, partial curve]. In the case of `COc1ccc(Cn2c(N)c(C(=O)NCc3ccco3)c3nc4ccccc4nc32)cc1OC`, the Potency was inconclusive: 20 µM [activator, partial curve]. With `CCOC(=O)C1CCN(S(=O)(=O)c2cc(-c3cc(C)no3)ccc2OC)CC1` the max response, negative = inhibition was inactive: 5.47%. `COc1ccc(O)c(/C=N/c2sc(C)c(C)c2C#N)c1` was tested, and the Potency was inconclusive: 31.6 µM [inhibitor, single point]. For `COc1ccccc1CCn1c(=O)c(-c2cccs2)nc2cncnc21`, the max response, negative = inhibition was inactive: -3.49%. For `Cc1ccc(C)c2nc(SCC(=O)N3CCCc4ccccc43)c(C#N)cc12`, the Potency was inconclusive: 39.8 µM [inhibitor, single point]. `CC1=C(C(=O)OC2CCCC2)C(c2ccc(C)o2)C2=C(CC(c3cccs3)CC2=O)N1` (stereo not given) was tested, and the Potency was inconclusive: 31.6 µM [inhibitor, partial curve]. With `COc1cccc([C@@H]2Oc3ccc(Br)cc3C(=O)[C@H]2OC(=O)Nc2cc(OC)c(OC)c(OC)c2)c1` the max response, negative = inhibition was inactive: -4.23%. With `CCOC(=O)c1c(C)[nH]c(C(=O)COC(=O)c2[nH]c(C)c(C(C)=O)c2C)c1C` the Potency was inconclusive: 31.6 µM [activator, partial curve].
Further: nearly all actives have a fitted effect of over 40% in size.
Potency means the concentration at half of the fitted maximal effect; tags describe the fitted curve by direction and shape.
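Wherever max response, negative = inhibition is given: plate controls were enzyme without inhibitor for no effect and buffer without enzyme for full effect.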
